Laboratory results as given in PubChem BioAssay AID540267 (National Center for Advancing Translational Sciences (NCATS), 2011).
Out of some 340,000 compounds screened, about 530 (0.16%) were called active. Inconclusive results, whose numbers are uncertain, are shown with a selection of clear calls. Cut-off read from the data, not from the text of the source: active = activity change below about -80%; inconclusive = between about -30% and that limit; inactive = weaker than that.

Experiment: Small Molecules that selectively kill Giardia lamblia: qHTS;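 note: parasites exposed to compound for two days anaerobically before the ATP read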
Conditions: Giardia lamblia trophozoite viability; at 7.66 µM; active compounds read low
How it was run: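 Viability, read as ATP luminescence: trophozoites at 100 cells/well, compound added, 48 hrs anaerobic at 37 deg C, then 15-30 min room-temperature development before reading.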
% is set by controls: 0 for no effect and ±100 for the full control effect.

Structure (SMILES)	activity change
Cc1ccc(OCC(=O)Nc2cc(S(=O)(=O)N3CCOCC3)ccc2Cl)c([N+](=O)[O-])n1	inconclusive: -59% [inhibitor]
COc1ccc(NC(=O)CSc2nc(C3CC3)nc3ccccc23)cc1	inactive: 8.46%
O=C(COc1ccccc1)Nc1c2c(nn1-c1ccccc1)CS(=O)C2 (stereo unspecified)	inconclusive: -30.8% [inhibitor]
COc1ccc(C(=O)NC(=S)N(C)C2CCCCC2)cc1	inactive: 4.76%
CC(C)c1ccc(/C=C2\Oc3c(ccc(O)c3CN3CCN(C)CC3)C2=O)cc1	inconclusive: -30.2% [inhibitor]
COc1cc(OC)c(OC)cc1/C=N/NC(=S)NCC1CCCO1 (stereo unspecified)	inactive: -2.74%
OC(COC(c1ccc(Cl)cc1)c1ccc(Cl)cc1)CN1CCc2ccccc2C1 (stereo unspecified)	inactive: 4.91%
CCCS(=O)(=O)N1CCC(C(=O)N2CCC(Cc3ccccc3)CC2)CC1	inconclusive: -36.8% [inhibitor]
Cc1cc(NC(=O)c2ccc(NC(=O)C(C)Oc3ccccc3)cc2)no1 (stereo unspecified)	inactive: -5.53%
CCc1ccc(NC(=S)Nc2ccc3[nH]c(=O)[nH]c3c2)cc1	inactive: 0.672%
CC(/C=N/NC(=O)c1nnn(-c2nonc2N)c1C(C)C)=C\c1ccco1	inactive: 4.19%
CCCn1c(N/N=C\C=C\c2ccccc2)nc2c1c(=O)[nH]c(=O)n2C	inactive: -26.4%
C=CC[C@H](CC(=O)N[C@H](CO)Cc1ccccc1)C(=O)N[C@@H](COC(=O)[C@@H](CC=C)CC(=O)OC(C)(C)C)Cc1c[nH]c2ccccc12	inactive: -1.89%
CC(OCc1ccccc1)C(NC(=O)OC(C)(C)C)C(=O)NC1COC2CC(n3ccc(=O)[nH]c3=O)OC12 (stereo unspecified)	inactive: 24.5%
O=[N+]([O-])c1ccc(/C=[N+](\[O-])[C@@H]2CCCC[C@@H]2/[N+]([O-])=C/c2ccc([N+](=O)[O-])o2)o1	active: -82.2%
COC(=O)C1=C(C)Nc2ncnn2C1c1ccc(C)o1 (stereo unspecified)	inconclusive: -30.3% [inhibitor]
CCOC(=O)Cn1c2ccccc2n2nc(CCC(=O)O)c(=O)nc12	inconclusive: -34.4% [inhibitor]
O=C(CN1C(=O)NC2(CCCCC2)C1=O)Nc1ccc(Cl)cc1	inactive: 10.9%
CCOC(=O)C1CCN(C(=O)COC(=O)c2cccc(F)c2)CC1	inconclusive: -32% [inhibitor]
COc1ccc(N2C3=C(CC4=C2CCCC4=O)C(=O)CCC3)cc1	inactive: -16.1%
O=c1c(-c2ccc(O)cc2)coc2cc(O)ccc12	inconclusive: -34.1% [inhibitor]
